{
  "source": "PubChem BioAssay AID686970",
  "about": "(National Center for Advancing Translational Sciences (NCATS), 2013)",
  "note": "The campaign covered roughly 360,000 compounds. About 6,000 (1.7%) were called active. The shares of active, inactive and inconclusive entries below differ from those in the screen. The call rests on the fitted dose curve; in most records, active means well fitted cell-killing curve with a large enough effect; inconclusive means small, poorly fitted or top-dose-only effect, or effect the other way; inactive means flat fitted curve, though single readings scatter. Potencies of inconclusive entries are left out as doubtful fits. Potency means the concentration at half of the fitted maximal effect; tags describe the fitted curve by direction and shape.",
  "data": [
    {"assay": "qHTS for induction of synthetic lethality in tumor cells producing 2HG: qHTS for the HT-1080-NT fibrosarcoma cell line;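 further: NT is the 2HG producing partner of a matched IDH1 knockdown line; nearly all actives have a fitted effect of over 55% in size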", "details": "HT-1080-NT fibrosarcoma viability, CellTiter-Glo ATP luminescence, 48 h; series mostly up to 46.1 µM", "summary_of_the_method": "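Luminescent CellTiter-Glo readout after 48 hours of compound exposure at 37 degrees C defined viability of HT-1080-NT cells. Activity was normalized to DMSO wells and cell-free media wells; concentration-response curves were fitted and assigned curve classes.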", "values": [
      {"smiles": "COc1ccc(C2(O)CC3CCC(C2)N3c2cc(C)nc(-c3ccccc3)n2)cc1", "note": "(stereo not given)", "Potency": "inconclusive [cytotoxic, single point]"},
      {"smiles": "Nc1c(Cl)ncnc1Nc1ccc(C(=O)O)cc1", "Potency": "inactive"},
      {"smiles": "O=C(NCC1CCCO1)c1csc(Nc2cccc3ccccc23)n1", "note": "(stereo not given)", "Potency": "inconclusive [cytotoxic, single point]"},
      {"smiles": "O=C(NCc1ccncc1)/C(=C/c1cccc([N+](=O)[O-])c1)NC(=O)c1ccccc1", "Potency": "inactive"},
      {"smiles": "O=C1c2ccccc2C(=O)c2c(/C=C/N3CCCCC3)ccnc21", "Potency": "inactive"},
      {"smiles": "CC1C(=O)N(Cc2cn(CCC3OCCO3)nn2)CCS(=O)(=O)N1Cc1ccc(-c2ccc(Cl)c(Cl)c2)cc1", "note": "(stereo not given)", "Potency": "inconclusive [cytotoxic, single point]"},
      {"smiles": "COc1ccc(CN2CCC(C)(Oc3ccc4c(c3)OCO4)C2)c2ccccc12", "note": "(stereo not given)", "Potency": "inconclusive [cytotoxic, single point]"},
      {"smiles": "CC(CSc1nnnn1-c1ccccc1)Cn1c(N2CCCC2)nc2c1c(=O)[nH]c(=O)n2C", "note": "(stereo not given)", "Potency": "inactive"},
      {"smiles": "O=c1cc(-c2ccccc2)[nH]c2nc3ccccc3n12", "Potency": "inconclusive [cytotoxic, single point]"},
      {"smiles": "COc1ccc(CCNCC(O)COc2ccc(OC)cc2C(C)(C)C)cc1", "note": "(stereo not given)", "Potency": "inconclusive [cytotoxic, single point]"},
      {"smiles": "O=C(Nc1ccc(NC(=O)c2cccs2)cc1)c1ccc2c(c1)OCO2", "Potency": "inconclusive [cytotoxic, single point]"},
      {"smiles": "FC(F)(F)c1cc(CCN2CCNC[C@@H]2CC2CCCCC2)cc(C(F)(F)F)c1", "Potency": "inconclusive [cytotoxic, single point]"},
      {"smiles": "COc1ccccc1Nc1c2c(nc3ccccc13)CCC2", "Potency": "inconclusive [cytotoxic, partial curve]"},
      {"smiles": "CC1=NN(c2nc3ccccc3[nH]2)C(=O)C1Cc1ccccc1", "note": "(stereo not given)", "Potency": "active: 2.06 µM"},
      {"smiles": "COc1ccc(C)cc1NC(=O)c1nn(-c2ccccc2)cc1OC", "Potency": "active: 14.6 µM"},
      {"smiles": "CC(C)c1nnc(NC(=O)c2nc(S(=O)(=O)Cc3ccccc3F)ncc2Cl)s1", "Potency": "active: 18.4 µM"},
      {"smiles": "O=c1c(-c2nc3ccccc3s2)cccn1Cc1ccc(Cl)c(Cl)c1", "Potency": "inactive"},
      {"smiles": "Cc1ccccc1-n1nc2c(c1NC(=O)c1ccc(Br)o1)CSC2", "Potency": "inactive"},
      {"smiles": "COC(=O)N1CCCCC1c1cc(C(=O)Nc2ccccc2Cl)no1", "note": "(stereo not given)", "Potency": "inconclusive [rising, single point]"},
      {"smiles": "CCOC(=O)[C@]12CCC=C1N(Cc1ccco1)C(=O)[C@H](CC(=O)NCc1cccc(C(F)(F)F)c1)C2", "Potency": "inconclusive [cytotoxic, single point]"}
    ]}
  ]
}
